The results in this text go back to PMC6919601, “Identification of Plasmodium dipeptidyl aminopeptidase allosteric inhibitors by high throughput screening” (PLoS ONE, 2019).

Out of some 110,000 compounds screened, about 230 (0.21%) showed an effect of 50% or more. Some of the results follow.
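Further: 30 min substrate incubation versus DMSO and 10 µM JCP410 controls.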

The target in this assay is DPAP1 (Plasmodium falciparum, UniProt Q8IIJ9). Description: primary screen, percent inhibition; read by cleavage of a fluorogenic dipeptide substrate; higher = more effect of the substance. Also noted: species or system P. falciparum D10 trophozoite lysates; single well.
Sequence of DPAP1 (Q8IIJ9 whole entry, looked up): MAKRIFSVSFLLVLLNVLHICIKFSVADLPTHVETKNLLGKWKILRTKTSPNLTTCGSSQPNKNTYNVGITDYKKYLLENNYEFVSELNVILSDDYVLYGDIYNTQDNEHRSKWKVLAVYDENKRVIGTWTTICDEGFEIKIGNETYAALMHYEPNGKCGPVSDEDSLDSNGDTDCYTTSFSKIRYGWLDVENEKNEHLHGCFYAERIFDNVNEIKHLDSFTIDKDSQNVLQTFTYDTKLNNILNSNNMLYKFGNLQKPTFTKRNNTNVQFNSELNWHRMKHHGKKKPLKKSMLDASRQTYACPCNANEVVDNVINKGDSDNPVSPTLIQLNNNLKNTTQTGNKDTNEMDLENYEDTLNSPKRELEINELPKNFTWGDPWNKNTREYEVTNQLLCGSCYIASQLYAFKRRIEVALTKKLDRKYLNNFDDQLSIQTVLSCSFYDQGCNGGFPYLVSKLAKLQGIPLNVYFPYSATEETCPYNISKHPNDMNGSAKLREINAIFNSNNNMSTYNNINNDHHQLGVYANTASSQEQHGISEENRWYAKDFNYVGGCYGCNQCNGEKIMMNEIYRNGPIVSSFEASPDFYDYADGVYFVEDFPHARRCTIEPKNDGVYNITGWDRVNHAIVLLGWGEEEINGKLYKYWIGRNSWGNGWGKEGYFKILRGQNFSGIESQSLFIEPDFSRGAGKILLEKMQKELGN
Regarding `O=C(Cc1ccccc1)Nc1nnc(COc2ccccc2)s1`, the “% Inhibition @ 10 uM” value was -2.41%.
With `CC1CC(=O)NN=C1c1ccc(N)c(N)c1` (stereo not drawn), the “% Inhibition @ 10 uM” value was -4.8%.
`CCCCC(=O)Nc1cccc2c(NC(=O)CCCC)cccc12`: the “% Inhibition @ 10 uM” value was -4.4%.
In the case of `CCOC(=O)c1cnc2c(C)cc(Cl)cc2c1NCCCO` it was 5.17%; in that of `Cn1c2ccccc2c2nnc(SCC(=O)Nc3sc4c(c3C#N)CCCC4)nc21`, -3.48%; in that of `COCCNC(=O)Nc1cn(CC(C)C)c(=O)c2ccccc12`, -4.78%.
For the compound `COc1ccc(NC(=O)CN(C2CCCCC2)S(C)(=O)=O)cc1OC`, the “% Inhibition @ 10 uM” value is listed as 0.709%.
`O=C(NCc1ccccc1)c1ccc(CS(=O)Cc2ccccc2Cl)o1` (stereo not drawn): the “% Inhibition @ 10 uM” value is on record as -1.28%.
For the compound `Cn1c(=O)c2c(nc(NCc3ccccc3)n2CC(O)COc2ccccc2)n(C)c1=O` (stereo not drawn), the “% Inhibition @ 10 uM” value is listed as -1.11%.
For `CCOc1ccc(/C=C2/Sc3ccccc3C2=O)cc1OCC`, the “% Inhibition @ 10 uM” value is 4.41%.
`CC1CN(Cc2nc3c(c(=O)n(C)c(=O)n3C)n2CC(=O)c2ccccc2)CC(C)O1` (stereo not drawn): the “% Inhibition @ 10 uM” value is on record as -1.43%.
`CCCc1ccc(-c2c(C)sc(NC(=O)c3ccnn3C)c2C#N)cc1`: the “% Inhibition @ 10 uM” value is -1.98%.
`CC(NC(=O)c1ccc(CS(=O)(=O)c2ccc(Cl)cc2)o1)c1ccc2c(c1)OCCO2` (stereo not drawn): the “% Inhibition @ 10 uM” value was determined as 2.35%.
As for `CC(C)c1ccc(-n2cccc2/C=C2\C(=N)N3N=CSC3=NC2=O)cc1`, the “% Inhibition @ 10 uM” value is recorded as 0.208%.
As for `CCC(=O)Nc1ncc2c(n1)CC(c1ccc(C)cc1)CC2=O` (stereo not drawn), the “% Inhibition @ 10 uM” value came out at 2.36%.
On to `CN1CCN(C(=O)CCC(=O)O)CC1`, for which the “% Inhibition @ 10 uM” value is listed as -1.76%.
`CC1CCCC(C)N1C(=O)C1CC(c2ccccc2F)=NO1` (stereo not drawn): the “% Inhibition @ 10 uM” value is given as -2.16%.
Regarding `CCCCCCCCCP(=O)(O)c1ccccc1`, the “% Inhibition @ 10 uM” value is given as -2%.
In the case of `COc1ccc(C2Nc3ccccc3C(=O)N2c2ccccc2)cc1CN1CCOCC1` (stereo not drawn) it was -9.66%; in that of `COc1ccccc1NC(=O)c1c(-c2ccccc2Cl)noc1C`, -0.425%; in that of `CCCn1c(Nc2nc3ccccc3n2C)nc2ccccc21`, -9.37%.
On to `CC1CCc2nc3sc(C(N)=O)c(N)c3cc2C1` (stereo not drawn), for which the “% Inhibition @ 10 uM” value worked out at 21.1%.
`CCc1c(O)n2ccccc2nc1=O`: the “% Inhibition @ 10 uM” value is reported as -5.5%.
Turning to `Cc1ccc(-c2noc(COc3cccc(C)c3)n2)cc1`, the “% Inhibition @ 10 uM” value is reported as -3.29%.
`C=CCc1cc(/C=C2\C(=N)N3N=C(S(C)(=O)=O)SC3=NC2=O)cc(OC)c1O`: the “% Inhibition @ 10 uM” value was found to be 1.9%.
In the case of `CCc1nc2c(C)ccc(C)c2c(N)c1C`, the “% Inhibition @ 10 uM” value is given as -3.09%.
As for `Cc1ccc(NC(=O)c2ccccc2Br)cc1Cl`, the figure is 0.62%.
Regarding `c1ccc(Cc2nn3c(Cn4cnc5ccccc54)nnc3s2)cc1`, the “% Inhibition @ 10 uM” value worked out at 21.2%.
For `COc1cccc2c(O)c3cccc(N)c3nc12`, the “% Inhibition @ 10 uM” value is -8.49%.
In the case of `O=C1C(=C2C=CN(CCc3ccccc3)C=C2)C(=O)c2ccccc21` it was -5.2%.
